According to the supplement of paper PMC11417369:
± gives the standard deviation of the averaged measurements. This is one part of the list.

Tested on: PfAP2-EXP AP2 domain (GST-tagged)
Test: gcPBM binding intensity (ln(normalized median fluorescence intensity)); higher = stronger DNA binding
Procedure, shortened: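 GST-tagged P. falciparum DNA-binding domains, expressed in E. coli (about 25 μg on average), were applied for 1 h to an Agilent 4 × 180k array of primer-extended double-stranded 36-bp intergenic genomic probes plus negative controls. The binding buffer was 1× PBS with 1% milk, 0.2 mg/ml BSA, 0.5% salmon testes DNA and 0.03% Triton X-100. Bound protein was detected with Alexa488 anti-GST antibody and scanned at 488 nm. Binding intensity is the highest Masliner-normalised natural-log median intensity across replicate spots of either probe orientation.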

Sequence | gcPBM binding intensity (ln)
AATGTAAAACCTCCTACACACACCAATTAACTATTC [CACACA_site2112] | 8.77 ± 0.57
GCCATTGTACCATCCACACACATATATATCTGTATA [CACACA_site5490] | 9.19 ± 0.44
AAAAAAGAAGAGCACACACACATATATAAATATAAA [CACACA_site631] | 8.69 ± 0.49
TTATAATAAAAGGCTTTACAATTATTAAACAAATAA [GTGCAC_negctrl_site480] | 8.21 ± 0.47
TGGTATTAAGGAGAGGGTACAAAAAAAAAAAAAAAA [XGTACX_site1668] | 8.28 ± 0.49
AAATATAAACTCAGCACACAAACATATATATGTCAT [CACACA_site4004] | 8.73 ± 0.49
TTCTAATATTTACATAATATATAGAAATATAAAGGT [XGTACX_negctrl_site504] | 8.73 ± 0.47
GTAGACATTATAATGGTGCAAAAAAATTAACAAAAA [GTGCAC_site9891] | 9.23 ± 0.2
TTTTTTTTTTTTTCTCGTACAAAATAATACCTTTTT [XGTACX_site3867] | 8.64 ± 0.42
ATGGTATAAAAAAATACACACTTATATATATTCTTA [CACACA_site4427] | 8.22 ± 0.36
AAAAAAAACGGACACACACACATACAAAATATATAT [CACACA_site4910] | 8.7 ± 0.38
AGGGAATATTTTTATGCATGTGCTTACACATTACAA [TGCATGCA_site830] | 8.78 ± 0.37
TGGATTTTGTATTAATGTACATATATATATATATAT [XGTACX_site4442] | 10.2 ± 0.51
TATATTATTTATTAGACACACATTATTAATATATTT [CACACA_site1078] | 8.4 ± 0.35
AACAACATTTTGTAATGTACATATTTACTTATATTC [XGTACX_site7251] | 8.46 ± 0.28
CAGATAGACTTATATGCATGCATTCACATACCAACA [TGCATGCA_site163] | 9.76 ± 0.17
TGAAAAGTAAAATACACACACATAATCTAATTTATA [CACACA_site7024] | 8.39 ± 0.53
GGTTAACATAAATATATACACACCAATGATGGCATT [CACACA_site1568] | 8.41 ± 0.34
CCTCTTAATATGTGCACACTAAATTATAACATAATT [CACACA_site3259] | 9.12 ± 0.16

Sequence | gcPBM binding intensity (ln)
AAATAATTAGAAATAGTGCACATAATTAAGGGATAC | 9.53 ± 0.28
TAGAAATATATAAATTGTACATGTTTGTATAATATA [XGTACX_site2097] | 8.42 ± 0.34
TATATTATTTATTTTTGTACATATTATGAATGAATA [XGTACX_site3971] | 8.67 ± 0.44
CTTCCTTCTAAATGCACACGGAAAGTATAAATGTAT [CACACA_site2501] | 8.79 ± 0.32
TTACCTTTAAATGGATGTACAGAAATTTAAATTGTT [XGTACX_site7044] | 8.53 ± 0.4
TATTTGTTTTTATATAGTACATAAATATATATATAT [XGTACX_site7834] | 9.65 ± 0.28
AAAATAAATATGAACACACACATTTATGCCTTTAAA [CACACA_site1271] | 8.21 ± 0.29
AAAAAATAAATAAATACACACACACTAATATATATA [CACACA_site8488] | 8.96 ± 0.28
AGAGATATAAGAAAAGCACACACACCCAAAAAAAAA [CACACA_site8917] | 8.82 ± 0.56
TATATACAAAAAATATGTACATATATATATATATAT [XGTACX_site3497] | 10.1 ± 0.33
ATTATTTATATTATGGTGCATAATTTTGGGTTTCTT | 8.86 ± 0.26
CCCACAAAGGAATATACACACATATATATATATATA [CACACA_site4091] | 10.2 ± 0.13
TAAATATTTTTTTAGACACACATATATCTATGATAT [CACACA_site1107] | 8.22 ± 0.4
TTGAAAATGAAAAAATGTACTTAAAAAAAAGGAACA [XGTACX_site8664] | 8.74 ± 0.45
TCTTTGAATTTTTTAACACACACATGGGTGGATATA [CACACA_site8474] | 8.43 ± 0.39
ATAAAATTGTATAACTGTACATATATATATATATAT [XGTACX_site5596] | 10.1 ± 0.3
ATACATATATACATATGTACATATATATATATATAT [XGTACX_site8206] | 9.9 ± 0.39
AAAAAAATAATTTGTAGTACGATTCAATGAAAAGGC [XGTACX_site1287] | 8.84 ± 0.38
GGATATAACAGACACACACACACATATAAATATATT [CACACA_site7866] | 8.68 ± 0.51

Sequence | gcPBM binding intensity (ln)
TTTTTTCTTAAAGACATATATTTATTTGGTAAAACA [XGTACX_negctrl_site243] | 8.11 ± 0.42
ATGCTATATTAAAAACGTACAAACTGTTTAGAAAAA [XGTACX_site8943] | 8.49 ± 0.33
CAAAATAAAAATTAATGTACATAAAAAATGAATATA [XGTACX_site1085] | 8.79 ± 0.35
TATTTACATTTATGTGCACACATTCCATTTGAAAGT [CACACA_site1954] | 8.9 ± 0.071
AATAGAAAAAAAAAATGTACACATATAAAAGCATAT [XGTACX_site6306] | 8.87 ± 0.45
CGGACATACATAGGAACATGCAAAATTTTTTATTTT [TGCATGCA_site575] | 8.65 ± 0.44
TATTTTCTTTTTCTTGTACACACATAATATGGATGA [CACACA_site8168] | 8.79 ± 0.39
TTGTTATATTACAGTAGTACATTTAAAATCTACTAC [XGTACX_site2620] | 8.56 ± 0.4
TTTTTTTTTTTTTTTTGTACGTAAAAAAATATATAC [XGTACX_site1290] | 8.36 ± 0.22
AATATTTATACTATAACACACATACAGACAAAAAAA [CACACA_site6396] | 8.85 ± 0.4
TTACATTATATACATACACACCCACCCACAAAAAAA [CACACA_site8187] | 9.82 ± 0.69
ATTTTTATTTACAACCCCAAAAAGGAAAAACATAAA [CACACA_negctrl_site1169] | 8.86 ± 0.71
ATAATATCATCAAACGCACACATACATAAATATATT [CACACA_site5230] | 8.63 ± 0.39
TATTTTTATAATATATGTACATATATATATATATTA [XGTACX_site5343] | 8.38 ± 0.37
ACATATTATATGAATACACACAAAAACTTATCGGTA [CACACA_site3439] | 8.54 ± 0.39
ACAGGAAAAAACAATTGTACATGTATATATATATAT [XGTACX_site7677] | 10.1 ± 0.35
ATATATATATATATATGTACATATTTTATTTGAAAT [XGTACX_site7411] | 10.1 ± 0.38
GCATAATATACTCTTACACACCATTTCTAAATACAT [CACACA_site4912] | 8.9 ± 0.48
AAGACAATATATGCAGTGCATATACATACATATATA | 8.65 ± 0.25
